{
  "source": "paper PMC9499477",
  "about": "“The Inflammasome Activity of NLRP3 Is Independent of NEK7 in HEK293 Cells Co-Expressing ASC” (International Journal of Molecular Sciences, 2022)",
  "proteins": {"B1": {"name": "human NLRP3 lacking the PYD (NLRP3ΔPYD, […]), FLAG-tagged (domain or fragment)", "chain": "not shown", "notes": "NLRP3, human, N-terminally truncated, […] (lacks the pyrin domain); also called wild-type NLRP3ΔPYD; PYD-deleted NLRP3"}},
  "molecular_target": "the molecule itself",
  "assay": "SEC + other: dynamic light scattering; analytical SEC: 100 µL of 1 mg/mL FLAG-tagged NLRP3ΔPYD on Superose 6 Increase 10/300, 20 mM HEPES pH 7.5, 200 mM NaCl, 1 mM MgCl2, 2 mM DTT, size by calibration standards; DLS at 10 °C in the same buffer; self-association",
  "data": [
    {"protein": "B1", "values": [
      {"measurement": "binding result", "value": "binds"}
    ]}
  ]
}
